Data as given in PubChem BioAssay AID624255 (Broad Institute, 2012).
About 4,600 (6%) of roughly 77,000 compounds were called active. This list was built around the results that the source calls inconclusive (neither active nor inactive); the mix of calls is not that of the screen.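 Rule for the calls: active = mean inhibition above about 93%, with at least 55% of replicates each passing it (limit read from the data, passing the limit was not always enough); inconclusive = only one of those two conditions holds; inactive = neither condition holds.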

experiment: T. cruzi intracellular proliferation inhibitors, primary screen, cell-based, beta-gal Tulahuen parasites, NIH3T3 host, luminescence (AID 624255); settings: T. cruzi beta-gal in NIH3T3, GalScreen luminescence, 90 h; at 8.34 µM; hits give high values

Compound	inhibition
O=C(Nc1cccc(F)c1)N1CCCCN2[C@H](CO)[C@@H](c3ccc(-c4ccncc4)cc3)[C@@H]2C1	active: 103%
COc1ccc(C#Cc2ccc([C@@H]3[C@@H](CO)N4CCCCN(Cc5ccncc5)C[C@H]34)cc2)cc1	inconclusive: 93.1%
Cc1ccc(S(=O)(=O)Nc2ccc3c(c2)C(=O)N([C@@H](C)CO)C[C@H](C)[C@@H](CN(C)C(=O)Cc2ccccc2)OCCCC[C@@H](C)O3)cc1	inconclusive: 95.4%
CN(C)C(=O)c1cccc(-c2ccc3c(c2)[C@@H]2[C@@H](CCN2S(=O)(=O)c2cn(C)cn2)[C@@H](CO)N3)c1	inconclusive: 96.9%
CO[C@@H]1CN(C)C(=O)c2ccc(NC(=O)C3CC3)cc2OC[C@H](C)N(Cc2cncnc2)C[C@@H]1C	inactive: 23.8%
O=C(C1CC1)N1CCCCN2[C@H](CO)[C@H](c3ccc(-c4cccc(F)c4)cc3)[C@@H]2C1	inconclusive: 98.6%
CC(C)CC#Cc1ccc([C@H]2[C@H]3CN(C(=O)NC4CCCC4)CCCCN3[C@H]2CO)cc1	inconclusive: 99%
COc1ccccc1NC(=O)N1CCCCN2[C@H](C1)[C@H](c1ccc(-c3ccccc3)cc1)[C@@H]2CO	active: 119%
CC(C)C#Cc1ccc2c(c1)O[C@H](CN(C)Cc1ccccn1)[C@@H](C)CN([C@@H](C)CO)S2(=O)=O	inconclusive: 121%
C[C@@H]1CCCCO[C@@H](CN(C)C(=O)C2CCCCC2)[C@H](C)CN([C@H](C)CO)C(=O)c2cc(NC(=O)Nc3cccc4ccccc34)ccc2O1	inconclusive: 121%
O=C(NC1Cc2ccccc2C1)[C@H]1N[C@H]2c3cccc(=O)n3C[C@H]2[C@@H]1CO	inactive: 1.24%
COc1cccc(NC(=O)N(C)C[C@@H]2Oc3ncc(C#Cc4ccccc4)cc3C(=O)N([C@@H](C)CO)C[C@@H]2C)c1	inconclusive: 112%
CCCC#Cc1ccc([C@H]2[C@H](CO)N3CCCCN(C(=O)c4ccc5c(c4)OCO5)C[C@@H]23)cc1	inconclusive: 95.5%
Cc1cccc(-c2ccc([C@@H]3[C@@H](CO)N4CCCCN(Cc5ccncc5)C[C@@H]34)cc2)c1	inactive: 71.2%
C/C=C/c1ccc2c(c1)O[C@@H](CN(C)S(=O)(=O)c1ccccc1OC)[C@H](C)CN([C@@H](C)CO)S2(=O)=O	active: 116%
N#C[C@H]1[C@H](c2ccc(C#Cc3ccc(F)cc3)cc2)[C@H](CO)N1C(=O)C1CC1	active: 114%
C[C@@H]1CN([C@H](C)CO)C(=O)CCCn2cc(nn2)CO[C@H]1CN(C)C(=O)c1ccc2ccn(C)c2c1	inconclusive: 96%
CCCNC(=O)Nc1ccc2c(c1)C(=O)N(C)C[C@@H](OC)[C@H](C)CN(Cc1ccccc1)[C@H](C)CO2	inactive: 23.1%
C[C@@H]1CCCCO[C@@H](CN(C)C(=O)NC2CCCCC2)[C@H](C)CN([C@@H](C)CO)C(=O)c2cc(NS(=O)(=O)c3ccccc3)ccc2O1	inconclusive: 99.3%
C[C@@H]1CN([C@H](C)CO)C(=O)c2c(c3ccccc3n2C)-c2ccccc2CO[C@H]1CN(C)C(=O)Nc1ccc2c(c1)OCO2	inactive: 73.5%

Compound	inhibition
COCC(=O)Nc1ccc2c(c1)C(=O)N(C)C[C@H](OC)[C@H](C)CN(Cc1cccnc1)[C@H](C)CO2	inactive: 74%
O=C(C[C@H]1CC[C@@H](NC(=O)Nc2ccc3c(c2)OCO3)[C@H](CO)O1)NCc1ccc(F)cc1	inactive: 0.703%
C[C@@H]1CCCCO[C@@H](CN(C)CC2CCCCC2)[C@H](C)CN([C@@H](C)CO)C(=O)c2cc(NC(=O)CCC(F)(F)F)ccc2O1	inconclusive: 100%
Cc1cc(C(=O)Nc2cccc3c2O[C@@H](CN(C)C(=O)NC2CCCCC2)[C@@H](C)CN([C@H](C)CO)C3=O)n(C)n1	inactive: 30.4%
Cc1cccc(-c2ccc([C@H]3[C@@H](CO)N4CCCCN(C(=O)c5cccnc5)C[C@@H]34)cc2)c1	inconclusive: 100%
O=C(C1CCCC1)N1CCCCN2[C@H](CO)[C@@H](c3ccc(-c4cccc(F)c4)cc3)[C@H]2C1	active: 111%
C[C@H]1CCCCO[C@H](CN(C)C(=O)Nc2cccc3ccccc23)[C@@H](C)CN([C@@H](C)CO)C(=O)c2cc(NC(=O)Nc3ccccc3)ccc2O1	inconclusive: 101%
C[C@@H]1CN([C@@H](C)CO)C(=O)c2cc(NS(C)(=O)=O)ccc2O[C@@H](C)CCCCO[C@H]1CN(C)Cc1ccc(C(=O)O)cc1	inactive: 76.1%
OC[C@H]1[C@@H](c2ccc(Br)cc2)[C@@H]2CNCCCCN12	inactive: -9.07%
COc1ccc(S(=O)(=O)Nc2ccc3c(c2)C(=O)N([C@@H](C)CO)C[C@H](C)[C@H](CN(C)S(=O)(=O)c2ccc(Cl)cc2)OCCCC[C@H](C)O3)cc1	inconclusive: 96.8%
N#Cc1cccc(-c2ccc([C@H]3[C@@H](CO)N4CCCCN(C(=O)Nc5ccccc5)C[C@@H]34)cc2)c1	active: 111%
Cc1ccc(S(=O)(=O)N(C)C[C@@H]2Oc3ccc(NS(=O)(=O)c4cn(C)cn4)cc3CC(=O)N([C@H](C)CO)C[C@@H]2C)cc1	inactive: 3.12%
C[C@@H]1CN([C@@H](C)CO)S(=O)(=O)c2ccc(-c3ccccc3)cc2O[C@H]1CN(C)CC1CCCC1	active: 95.5%
Cc1ccccc1S(=O)(=O)N1CC[C@@H]2[C@@H](CO)N(C)c3ccc(-c4ccccc4)cc3[C@@H]21	inconclusive: 95.3%
O=C(C[C@@H]1C[C@H]2c3cc(NS(=O)(=O)c4ccc(F)cc4)ccc3O[C@H]2[C@H](CO)O1)N1CCc2ccccc2C1	inconclusive: 95.2%
C[C@H]1CN([C@@H](C)CO)C(=O)CCCn2cc(nn2)CO[C@H]1CN(C)C(=O)c1ccc(N2CCN(C)CC2)cc1	inconclusive: 122%
C/C=C/c1ccc2c(c1)O[C@H](CN(C)Cc1ccncc1)[C@H](C)CN([C@H](C)CO)S2(=O)=O	inactive: 71.5%
O=S(=O)(c1ccccc1)N1CCCCN2[C@@H](CO)[C@H](c3ccc(-c4ccccc4F)cc3)[C@@H]2C1	active: 105%
C[C@@H]1CCCCO[C@H](CN(C)C(=O)Nc2cccc3ccccc23)[C@H](C)CN([C@@H](C)CO)C(=O)c2cc(NC(=O)Cc3ccccc3)ccc2O1	active: 107%
COCC(=O)N1C[C@H](C)[C@H](OC)CN(C)C(=O)c2ccc(NC(=O)c3ccc(OC)cc3)cc2OC[C@H]1C	inconclusive: 69.9%

Compound	inhibition
COc1ccccc1C#Cc1ccc([C@@H]2[C@H](C#N)N(C(=O)C3CCC3)[C@H]2CO)cc1	inconclusive: 95.8%
C[C@H](CO)N1C[C@H](C)[C@@H](CN(C)C(=O)Nc2ccc(F)cc2)OCCCC[C@H](C)Oc2ccc(NC(=O)NC3CCCCC3)cc2C1=O	inconclusive: 95.5%
Cc1cc(C(=O)Nc2ccc3c(c2)C(=O)N(C)[C@H]2CC[C@@H](CC(=O)NCc4ccc(-c5ccccc5)cc4)O[C@@H]2CO3)no1	inactive: 86%
C[C@H](CO)N1C[C@H](C)[C@H](CN(C)Cc2cccc(O)c2)OCc2cn(nn2)CCCC1=O	inconclusive: 111%
C[C@@H]1CN([C@@H](C)CO)C(=O)c2cc(NC(=O)Nc3ccc(C(F)(F)F)cc3)ccc2O[C@@H](C)CCCCO[C@H]1CN(C)C(=O)c1ccccc1	inconclusive: 109%
COc1cccc(C(=O)Nc2ccc3c(c2)C(=O)N(C)C[C@H](OC)[C@H](C)CN(CCc2ccccc2)[C@@H](C)CO3)c1	inconclusive: 84.8%
C[C@H]1CN([C@@H](C)CO)S(=O)(=O)c2ccc(Br)cc2O[C@@H]1CN(C)Cc1cccc(F)c1	inconclusive: 106%
COC(=O)[C@@H]1[C@@H](CO)[C@@H]2Cn3c(ccc(-c4ccccc4)c3=O)[C@@H]2N1Cc1cccc(F)c1	inconclusive: 97%
CNC[C@@H]1OCCCC[C@@H](C)Oc2ccc(NC(=O)Nc3ccc(C(F)(F)F)cc3)cc2C(=O)N([C@@H](C)CO)C[C@H]1C	inconclusive: 96%
C[C@@H]1CN([C@H](C)CO)C(=O)Cc2cc(NC(=O)Cc3cn(C)c4ccccc34)ccc2O[C@H]1CN(C)Cc1ccc(C(=O)Nc2ccccc2N)cc1	inconclusive: 96.3%
Cc1noc(C)c1S(=O)(=O)Nc1ccc2c(c1)CC(=O)N([C@@H](C)CO)C[C@@H](C)[C@@H](CN(C)CC1CC1)O2	inactive: 12.7%
COc1ccc(CNC(=O)C[C@@H]2CC[C@@H]3[C@H](COc4ccc(NC(=O)C5CC5)cc4C(=O)N3C)O2)cc1	inactive: -13.3%
O=C(C1CCC1)N1CCCCN2[C@@H](CO)[C@@H](c3ccc(C#CC4(O)CCCC4)cc3)[C@@H]2C1	inconclusive: 97.8%
Cc1ccc(S(=O)(=O)N(C)C[C@@H]2Oc3ccc(NS(=O)(=O)c4ccc(F)cc4)cc3C(=O)N([C@H](C)CO)C[C@@H]2C)cc1	inactive: 27.7%
C[C@H]1CN([C@@H](C)CO)C(=O)c2cccc(NS(C)(=O)=O)c2O[C@@H]1CN(C)S(=O)(=O)c1cccs1	inconclusive: 96.3%
CC(C)NC(=O)N1[C@H](CO)[C@@H](c2ccc(C#CC3CCCCC3)cc2)[C@@H]1C#N	active: 98.6%
C[C@H](CO)N1C[C@H](C)[C@@H](CN(C)C(=O)c2ccccc2)Oc2cc(/C=C/c3ccccc3)ccc2S1(=O)=O	inconclusive: 124%
CC(C)NC(=O)N1CCCCN2[C@H](CO)[C@@H](c3ccc(C#Cc4ccccc4F)cc3)[C@H]2C1	active: 112%
